PubChem BioAssay (NCATS)
Values joined by “and” are separate entries in the source; they are usually repeats but may differ in a detail not shown here. Equal values may be shown once. The inconclusive results got no clear call from the source; some entries with a clear call stand among them for comparison. For some of these results: Potencies of inconclusive entries are doubtful fits and often do not repeat. Some structures have more than one record in an assay (separate samples or runs), and their calls can disagree. Active and inactive are the calls of the source. Unless noted, calls come from the whole dose curve; as a rule, active = well fitted curve in the direction sought with a large enough effect; inconclusive = small, poorly fitted or top-dose-only effect, or another doubt; inactive = no such curve, though single readings can be large; an effect the other way counts as inactive or inconclusive.

How the values were obtained:
[1] = Primary qHTS for inhibitors of nuclear receptor binding SET domain protein 2 (NSD2) in an isogenic RCH-ACV NSD2 p.E1099K mutant (9B) (AID 1645876); note: nearly all actives have a fitted effect of over 70% in size; note: potency is the fitted concentration of half-maximal effect
[2] = Primary qHTS for inhibitors of nuclear receptor binding SET domain protein 2 (NSD2) in an RCH-ACV wild type WT cells (2C) (AID 1645877); note: nearly all actives have a fitted effect of over 70% in size; note: potency is the fitted concentration of half-maximal effect
[3] = target: Nuclear receptor subfamily 1 group I member 3 (Homo sapiens) (UniProt Q14994); test: Primary qHTS for agonist of constitutive androstane receptor (CAR) against the NCATS DSHEA and TCM libraries (AID 1794839); settings: CAR agonist reporter cells, qHTS luminescence; CAR antagonist co-added at 0.75 µM; note: potency is the fitted concentration of half-maximal effect
How it was run: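 HepG2-CYP2B6-hCAR cells, 2,500/well, attached 5 h, then dosed with 0.75 µM PK11195 (final) for 24 h at 37 °C. Luciferase luminescence read (ONE-Glo); CellTiter-Fluor viability (Ex/Em 405/540 nm) in same wells; CITCO positive control.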

[4] = target: Metallo-beta-lactamase type 2 (Klebsiella pneumoniae) (UniProt C7C422); test: qHTS to identify inhibitors of the New Delhi Metallo-beta-lactamase (NDM): assay validation screen against the NCATS LOPAC Collection (AID 1794843); note: potency is the fitted concentration of half-maximal effect
How it was run: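 Nitrocefin hydrolysis (50 uM substrate stock) by NDM-1, 2 nM final, was followed by 485 nm absorbance after compound preincubation; buffer was 50 mM HEPES pH 7.0, 1 uM ZnSO4, 0.01% Tween20.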

[5] = target: Luciferin 4-monooxygenase (Photinus pyralis) (UniProt P08659); test: Primary firefly luciferase (FLuc) qHTS assay for identification of artifact compounds. (AID 1845220); note: nearly all actives have a fitted effect of over 60% in size; note: potency is the fitted concentration of half-maximal effect
How it was run: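 Cell-free, 1536-well qHTS. Buffer pH 7.6 with 0.01% Tween-20 and 0.05% BSA; 10 uM D-luciferin, 10 uM ATP; 10 nM P. pyralis luciferase; luminescence after 5 min.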

[6] = NCATS anti-infectives library activity on HEK293 viability as a counter-qHTS vs the C. elegans viability qHTS (AID 1745854);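 note: HEK293 cells exposed to compounds for 24 hr before the viability read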; note: potency is the fitted concentration of half-maximal effect
How it was run: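 Compound titrations (final up to 41.7 uM) were incubated with HEK293 cells for 24 hr at 37C under 5% CO2. Viable cells were quantified with CellTiter-Glo after 10 min at ambient temperature.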

[7] = NCATS anti-infectives library activity on the primary C. elegans qHTS viability assay (AID 1745855; calls by dose curve; note: potency is the fitted concentration of half-maximal effect)
How it was run: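 Titration-based screen in worms: eggs hatched overnight in M9, L1 larvae fed TOP10 capsules in S medium with compound, incubated 21 °C for 7 days; fluorescent objects gated by size and intensity at days 0, 3 and 7.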

[8] = target: Phospholipid hydroperoxide glutathione peroxidase GPX4 (Homo sapiens) (UniProt P36969); test: Primary qHTS Assay for Inhibitors of Recombinant Selenoprotein Glutathione Peroxidase 4 (GPX4) (AID 1845192); settings: activity change, negative = inhibition: at 50 µM (top of the series); note: nearly all actives have a fitted effect of over 65% in size; note: potency is the fitted concentration of half-maximal effect; for activity change, negative = inhibition: % is set by controls: 0 for no effect and ±100 for the full control effect
How it was run: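 NADPH consumption followed by fluorescence at 340/450 nm, t=0 and after 15 min at room temperature. Reaction started with cumene hydroperoxide (0.5 mM final) after 30 min compound–GPX4 preincubation; final 200 nM GPX4, 100 nM GR, 1 mM GSH, 0.5 mM NADPH.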

[9] = target: Rap guanine nucleotide exchange factor 3 (Homo sapiens) (UniProt O95398); test: Confirmatory qHTS for antagonist of cAMP-regulated guanine nucleotide exchange factor 3 (EPAC1) (AID 1645880); note: nearly all actives have a fitted effect of over 55% in size; note: potency is the fitted concentration of half-maximal effect
How it was run: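 Released BODIPY-GDP fluoresces less than Rap1-bound BODIPY-GDP; the signal is followed at 480/540 nm at 5-min intervals over 30 min, after 5 min at room temperature. Reactions contain 100 nM EPAC1, 250 nM RAP1B-BODIPY-GDP and 50 uM GDP; results are normalized to ATA and DMSO.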

[10] = target: Nuclear receptor subfamily 1 group I member 3 (Homo sapiens) (UniProt Q14994); test: Primary qHTS for antagonist of constitutive androstane receptor (CAR) against the NCATS DSHEA and TCM libraries (AID 1794836);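 note: HepG2 cells stably expressing hCAR with CYP2B6 luciferase reporter stimulated by CITCO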
How it was run: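 Antagonist mode: CAR reporter luminescence (ONE-Glo) in HepG2-CYP2B6-hCAR cells stimulated with 48 uM CITCO (final) over 24 h at 37 C, compounds titrated; viability read first by CellTiter-Fluor fluorescence.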

[11] = target: Rap guanine nucleotide exchange factor 4 (Homo sapiens) (UniProt Q8WZA2); test: Confirmatory qHTS for antagonist of cAMP-regulated guanine nucleotide exchange factor 4 (EPAC2) (AID 1645885); note: potency is the fitted concentration of half-maximal effect; nearly all actives have a fitted effect of over 25% in size
[12] = target: Rap guanine nucleotide exchange factor 3 (Homo sapiens) (UniProt O95398); test: Counterscreen qHTS for agonist of cAMP-regulated guanine nucleotide exchange factor 3 (EPAC1) (AID 1645889); settings: EPAC1 Rap1B-BODIPY-GDP exchange, fluorescence; activation: at 154 µM (top of the series); note: % of control where 0% means no effect; nearly all actives have a fitted effect of over 40% in size
How it was run: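 Rap1B-BODIPY-GDP 250 nM + GDP 50 uM; cpds 7-pt, final 9.74 nM–152 uM (activator mode) or from 7.32 nM upwards (inhibitor mode); RT; FI 480/540 nm at 5 and 30 min, then ± cAMP, reread.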
Tags give direction and shape of the fitted curve.

UniProt P36969, sequence (P36969 whole entry, looked up): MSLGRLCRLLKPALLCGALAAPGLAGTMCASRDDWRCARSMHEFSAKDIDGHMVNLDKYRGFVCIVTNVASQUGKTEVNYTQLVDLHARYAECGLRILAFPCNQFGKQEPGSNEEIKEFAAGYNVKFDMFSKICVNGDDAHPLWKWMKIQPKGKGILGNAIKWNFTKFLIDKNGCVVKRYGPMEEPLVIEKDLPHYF
UniProt O95398, sequence (O95398 whole entry, looked up): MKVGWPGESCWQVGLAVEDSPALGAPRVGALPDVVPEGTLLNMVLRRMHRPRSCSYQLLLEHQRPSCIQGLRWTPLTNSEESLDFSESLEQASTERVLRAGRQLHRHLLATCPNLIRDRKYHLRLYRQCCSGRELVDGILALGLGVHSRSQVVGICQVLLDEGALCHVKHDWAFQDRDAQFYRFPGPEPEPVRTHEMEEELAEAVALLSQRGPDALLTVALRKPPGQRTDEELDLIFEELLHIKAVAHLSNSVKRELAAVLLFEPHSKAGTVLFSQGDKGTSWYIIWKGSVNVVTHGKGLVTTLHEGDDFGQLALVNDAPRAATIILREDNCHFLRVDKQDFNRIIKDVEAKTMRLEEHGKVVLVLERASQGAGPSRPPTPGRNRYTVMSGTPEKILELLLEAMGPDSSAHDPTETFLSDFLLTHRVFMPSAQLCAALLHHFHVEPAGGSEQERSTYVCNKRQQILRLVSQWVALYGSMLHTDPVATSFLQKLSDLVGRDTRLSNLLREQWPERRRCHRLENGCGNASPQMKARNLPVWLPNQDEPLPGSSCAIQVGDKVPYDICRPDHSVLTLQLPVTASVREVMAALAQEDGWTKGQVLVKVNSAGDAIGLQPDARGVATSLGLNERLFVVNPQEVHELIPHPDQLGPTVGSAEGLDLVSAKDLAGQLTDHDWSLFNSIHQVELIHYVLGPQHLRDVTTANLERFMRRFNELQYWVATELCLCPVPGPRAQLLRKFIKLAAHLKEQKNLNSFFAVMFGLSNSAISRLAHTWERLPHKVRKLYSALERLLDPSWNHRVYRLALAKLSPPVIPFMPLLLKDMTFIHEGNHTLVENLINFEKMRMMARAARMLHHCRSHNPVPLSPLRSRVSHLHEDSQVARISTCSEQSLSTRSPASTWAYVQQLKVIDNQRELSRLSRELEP
UniProt Q14994, sequence (Q14994 whole entry, looked up): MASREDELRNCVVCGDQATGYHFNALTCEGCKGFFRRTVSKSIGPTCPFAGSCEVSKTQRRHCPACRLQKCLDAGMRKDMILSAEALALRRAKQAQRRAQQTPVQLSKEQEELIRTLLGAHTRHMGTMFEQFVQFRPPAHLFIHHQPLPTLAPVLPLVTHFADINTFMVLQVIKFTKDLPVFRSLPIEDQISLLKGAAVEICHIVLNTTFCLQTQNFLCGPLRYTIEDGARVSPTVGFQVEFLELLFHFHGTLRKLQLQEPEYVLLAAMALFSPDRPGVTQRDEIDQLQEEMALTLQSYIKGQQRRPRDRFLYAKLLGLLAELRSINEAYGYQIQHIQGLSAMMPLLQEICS
UniProt C7C422, sequence (C7C422 whole entry, looked up): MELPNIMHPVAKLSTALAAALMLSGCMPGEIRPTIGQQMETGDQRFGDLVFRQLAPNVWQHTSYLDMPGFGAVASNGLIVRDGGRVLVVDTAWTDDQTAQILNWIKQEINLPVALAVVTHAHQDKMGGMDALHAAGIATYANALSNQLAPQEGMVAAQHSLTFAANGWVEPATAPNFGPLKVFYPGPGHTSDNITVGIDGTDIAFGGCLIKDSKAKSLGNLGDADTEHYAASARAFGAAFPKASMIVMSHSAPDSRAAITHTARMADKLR
UniProt Q8WZA2, sequence (Q8WZA2 whole entry, looked up): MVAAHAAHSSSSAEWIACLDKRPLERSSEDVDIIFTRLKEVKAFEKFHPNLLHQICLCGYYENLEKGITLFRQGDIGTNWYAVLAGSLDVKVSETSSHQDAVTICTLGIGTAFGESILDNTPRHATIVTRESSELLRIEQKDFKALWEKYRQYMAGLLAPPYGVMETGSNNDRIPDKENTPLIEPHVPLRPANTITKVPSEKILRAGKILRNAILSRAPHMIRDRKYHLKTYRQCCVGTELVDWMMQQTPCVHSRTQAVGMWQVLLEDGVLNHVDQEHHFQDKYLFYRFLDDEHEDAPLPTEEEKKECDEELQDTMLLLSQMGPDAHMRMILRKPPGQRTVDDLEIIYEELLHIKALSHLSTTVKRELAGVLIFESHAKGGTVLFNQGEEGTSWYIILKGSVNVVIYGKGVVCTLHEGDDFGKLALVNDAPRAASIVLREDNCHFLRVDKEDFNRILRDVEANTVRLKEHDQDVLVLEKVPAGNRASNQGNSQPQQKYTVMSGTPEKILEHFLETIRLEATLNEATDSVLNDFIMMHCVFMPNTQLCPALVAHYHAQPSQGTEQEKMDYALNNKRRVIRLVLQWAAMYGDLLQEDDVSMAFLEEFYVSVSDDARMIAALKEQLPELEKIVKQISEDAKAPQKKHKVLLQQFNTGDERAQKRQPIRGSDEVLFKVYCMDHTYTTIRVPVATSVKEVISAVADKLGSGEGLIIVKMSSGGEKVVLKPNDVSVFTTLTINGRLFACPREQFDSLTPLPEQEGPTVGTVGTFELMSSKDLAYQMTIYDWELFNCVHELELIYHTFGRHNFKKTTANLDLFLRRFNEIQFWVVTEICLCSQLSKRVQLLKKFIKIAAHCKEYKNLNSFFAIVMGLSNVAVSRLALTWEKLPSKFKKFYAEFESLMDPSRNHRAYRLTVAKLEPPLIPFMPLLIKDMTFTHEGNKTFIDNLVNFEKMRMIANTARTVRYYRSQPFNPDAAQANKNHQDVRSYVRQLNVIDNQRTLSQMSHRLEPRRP

CN(C1CCc2c(c3ccccc3n2CC(=O)O)C1)S(=O)(=O)c1ccc(F)cc1 (stereo not drawn)
Potency [1]: inactive | Potency [2]: inactive

CCOC(=O)N1CCC(n2c(=O)[nH]c3cc(Cl)ccc32)CC1
Potency [1]: inconclusive: 26.6 µM [inhibitor, single point] | Potency [2]: inconclusive: 15 µM [inhibitor, partial curve]

CCCCN(CCCC)CCC(O)c1cc2c(Cl)cc(Cl)cc2c2cc(C(F)(F)F)ccc12 (stereo not drawn)
Potency [1]: active: 13.3 µM | Potency [2]: active: 16.6 µM

CN(C)[C@@H]1C(=O)C(C(N)=O)=C(O)[C@@]2(O)C(=O)C3=C(O)c4c(O)cccc4C[C@H]3C[C@@H]12
Potency [1]: inconclusive: 26.6 µM [inhibitor, single point] | Potency [2]: inconclusive: 33.5 µM [inhibitor, single point]

CN(c1ncccc1CNc1nc(Nc2ccc3c(c2)CC(=O)N3)ncc1C(F)(F)F)S(C)(=O)=O
Potency [1]: active: 5.17 µM | Potency [2]: active: 8.33 µM

O=c1cc(-c2ccccc2)oc2ccccc12
Potency [1]: inconclusive: 38.2 µM [inhibitor, single point] | Potency [2]: inconclusive: 34 µM [inhibitor, single point]

Cc1oncc1C(=O)Nc1ccc(C(F)(F)F)cc1
Potency [1]: inconclusive: 16.4 µM [inhibitor, partial curve] | Potency [2]: inconclusive: 18.4 µM [inhibitor, partial curve]

COCCCN1CCC(NC(=O)c2cc(Cl)c(N)c3c2OCC3)CC1
Potency [1]: inconclusive: 26.6 µM [inhibitor, single point] and inactive | Potency [2]: inconclusive: 23.7 µM [inhibitor, single point]

CCCCCCCC/C=C/C(=O)O
Potency [1]: inconclusive: 21.1 µM [inhibitor, single point] | Potency [2]: inconclusive: 29.9 µM [inhibitor, single point]

CCCCC(CC)CN1CN(CC(CC)CCCC)CC(C)(N)C1 (stereo not drawn)
Potency [1]: inconclusive: 33.5 µM [inhibitor, single point] | Potency [2]: inconclusive: 33.5 µM [inhibitor, single point]

CCc1cccc(N(C)C(N)=Nc2cccc3ccccc23)c1
Potency [1]: inconclusive: 33.5 µM [inhibitor, single point] | Potency [2]: inconclusive: 33.5 µM [inhibitor, partial curve, poor fit]

CCCOC(=O)c1ccc(O)cc1
Potency [1]: inconclusive: 21.7 µM [inhibitor, partial curve] | Potency [2]: inconclusive: 12.2 µM [inhibitor, partial curve, poor fit]

Cc1cc2cc3c(C)cc(=O)oc3c(C)c2o1
Potency [1]: inactive | Potency [2]: inactive

COc1ccc(-c2coc3cc(O)cc(O)c3c2=O)cc1
Potency [1]: active: 18.6 µM | Potency [2]: inconclusive: 29.5 µM [inhibitor, partial curve, poor fit]

CN(C)[C@@H]1C(=O)C(C(=O)NCN2CCCC2)=C(O)[C@@]2(O)C(=O)C3=C(O)c4c(O)cccc4[C@@](C)(O)C3C[C@@H]12 (stereo partly drawn)
Potency [1]: inconclusive: 16.8 µM [inhibitor, partial curve, poor fit] | Potency [2]: inconclusive: 29.9 µM [inhibitor, single point]

CN(C(Cc1ccc(OS(=O)(=O)c2cccc3cnccc23)cc1)C(=O)N1CCN(c2ccccc2)CC1)S(=O)(=O)c1cccc2cnccc12 (stereo not drawn)
Potency [1]: active: 7.31 µM and inconclusive: 7.42 µM [inhibitor, full curve] | Potency [2]: active: 6.51 µM and inconclusive: 7.42 µM [inhibitor, full curve]

NS(=O)(=O)c1cccc2c1C(=O)c1cccc(O)c1C2=O
Potency [1]: active: 1.66 µM | Potency [2]: active: 0.742 µM

CN1CCN(c2cc3c(nn2)Oc2ccccc2N3C)CC1
Potency [1]: inconclusive: 13 µM [inhibitor, single point] | Potency [2]: inconclusive: 11.6 µM [inhibitor, single point]

c1ccc(CCNc2nc(-c3ccccc3)cs2)cc1
Potency [1]: inconclusive: 33.5 µM [inhibitor, single point] | Potency [2]: inconclusive: 33.5 µM [inhibitor, single point]

Clc1ccccc1-c1nc(-c2ccncc2)no1
Potency [1]: inconclusive: 33.5 µM [inhibitor, partial curve, poor fit] | Potency [2]: inconclusive: 29.9 µM [inhibitor, single point]

O=C(Nc1ccc([N+](=O)[O-])cc1Cl)c1cc(Cl)ccc1O
Potency [1]: inconclusive: 2.59 µM [inhibitor, full curve] | Potency [2]: inconclusive: 11.6 µM [inhibitor, single point]

CNC[C@H](O)c1ccc(O)c(O)c1
Potency [1]: inconclusive: 13 µM [inhibitor, single point] and inactive | Potency [2]: inconclusive: 13 µM [inhibitor, single point]

Oc1ccc(/C=C/c2cc(O)cc(O)c2)cc1
Potency [3]: active: 31.6 µM

C[C@](N)(Cc1ccc(O)c(O)c1)C(=O)O
Potency [4]: inconclusive: 5.62 µM [inhibitor, partial curve, poor fit]

O=c1c2ccccc2nc2n1CCc1c-2[nH]c2ccccc12
Potency [5]: inconclusive: 0.757 µM [inhibitor, full curve]

COc1ccc(C2CC(c3ccccc3)=NN2c2ccc(S(N)(=O)=O)cc2)cc1 (stereo not drawn)
Potency [5]: inconclusive: 13.5 µM [inhibitor, partial curve, poor fit]

O=c1oc2cc(O)ccc2s1
Potency [6]: inactive

O=c1cc(-c2ccccc2)oc2cc(O)c(O)c(O)c12
Potency [6]: inconclusive: 5.62 µM [cytotoxic, single point]

O=c1[nH]cc(F)c(=O)[nH]1
Potency [7]: active: 6.48 µM

Cc1csc(NC(=O)c2sc3nc4c(c(C(F)(F)F)c3c2N)CCC4)n1
Potency [5]: inconclusive: 0.0269 µM [inhibitor, full curve, poor fit]

COc1cccc(-c2ccc(NC(=O)C3=C(C(=O)O)CCC3)c(F)c2)c1
Potency [5]: active: 5.36 µM

N[C@@H](Cc1c[nH]c2ccc(O)cc12)C(=O)O
Potency [2]: inactive

Cc1ccnc(NS(=O)(=O)c2ccc(NC(=O)Nc3ccc(S(=O)(=O)Nc4nccc(C)n4)cc3)cc2)n1
Potency [2]: inactive

CCOc1cc(NC(C)=O)ccc1C(=O)OC
Potency [2]: inactive | Potency [8]: inactive

Cc1cc(C(C)(C)C)c(O)c(C)c1CC1=NCCN1
Potency [2]: inactive

OC[C@H]1O[C@H](O[C@]2(CCl)O[C@H](CCl)[C@@H](O)[C@@H]2O)[C@H](O)[C@@H](O)[C@H]1Cl
Potency [2]: inactive

C[C@H](Cc1ccc(O)c(O)c1)[C@@H](C)Cc1ccc(O)c(O)c1
Potency [2]: active: 11.8 µM and active: 7.31 µM | Potency [8]: inconclusive: 18 µM [inhibitor, single point]

CC(COc1ccccc1)NN (stereo not drawn)
Potency [2]: inactive

NC(=O)c1cccc2[nH]c(-c3ccc([C@H]4CCCN4)cc3F)nc12
Potency [2]: active: 10.5 µM | Potency [5]: inconclusive: 21.3 µM [inhibitor, partial curve]

CN1Cc2cc(C(=O)N3CCC(C4CCNCC4)CC3)ccc2NC(CC(=O)O)C1=O (stereo not drawn)
Potency [2]: inactive

C=CC(=O)Nc1cccc(Sc2nc(Nc3ccc(N4CCN(C)CC4)cc3)ncc2Cl)c1
Potency [2]: active: 2.3 µM and active: 2.63 µM

COc1cc2nc(N3CCN(C(=O)C4CCCO4)CC3)nc(N)c2cc1OC (stereo not drawn)
Potency [2]: inconclusive: 15 µM [inhibitor, partial curve, poor fit]

O=C(Nc1cc2cc[nH]c2cn1)c1ccccc1
Potency [2]: active: 9.16 µM

CCOC(=O)NNc1ccc(N(CC)CC(C)O)nn1 (stereo not drawn)
Potency [2]: inconclusive: 33.5 µM [inhibitor, partial curve, poor fit]

CC(C)(C)c1ccc(C(=O)CCCN2CCC(OC(c3ccccc3)c3ccccc3)CC2)cc1
Potency [2]: active: 9.44 µM

COc1cc2c(cc1O)CC[C@@H]1[C@@H]2CC[C@]2(C)[C@@H](O)CC[C@@H]12
Potency [9]: inactive

O=c1cc(-c2ccc(O)cc2)oc2cc(O)cc(O)c12
Potency [2]: active: 4.68 µM | Potency [10]: inactive | Potency [3]: inconclusive: 15.8 µM [activator, full curve]

COc1cc2c(cc1OC)CN(CCc1ccc(NC(=O)c3cc(OC)c(OC)cc3NC(=O)c3cnc4ccccc4c3)cc1)CC2
Potency [2]: inconclusive: 4.5 µM [inhibitor, single point] | Potency [5]: inactive

COc1ccc2cc(CCC(C)=O)ccc2c1
Potency [2]: inactive | Potency [9]: inactive | Potency [11]: active: 8.79 µM | activation [12]: inconclusive: 32.8% [activator]

Clc1ccc2nsnc2c1NC1=NCCN1
Potency [2]: inactive

C/C(=N\O)c1ccc(OCC(=O)N2CCCCC2)cc1
Potency [2]: inactive | Potency [5]: inconclusive: 19 µM [inhibitor, partial curve]

C[C@@H](O[C@H]1OCCN(Cc2n[nH]c(=O)[nH]2)[C@@H]1c1ccc(F)cc1)c1cc(C(F)(F)F)cc(C(F)(F)F)c1
Potency [9]: inconclusive: 22.2 µM [inhibitor, partial curve]

CO[C@H]1C(=O)[C@]2(C)[C@@H](OC)C[C@H]3OC[C@@]3(OC(C)=O)[C@H]2[C@H](OC(=O)c2ccccc2)[C@]2(O)C[C@H](OC(=O)[C@H](O)[C@@H](NC(=O)OC(C)(C)C)c3ccccc3)C(C)=C1C2(C)C
Potency [2]: active: 0.0026 µM

COc1ccnc(CS(=O)c2nc3ccc(OC(F)F)cc3[nH]2)c1OC (stereo not drawn)
Potency [2]: active: 15 µM and active: 18.6 µM | Potency [8]: active: 16.1 µM and inconclusive: 9.04 µM [inhibitor, partial curve]

CC(C)NCC(O)c1ccc(O)c(O)c1 (stereo not drawn)
Potency [2]: inconclusive: 33.5 µM [inhibitor, partial curve, poor fit] and inconclusive: 20.9 µM [inhibitor, single point]
